Assay results from US20060148828A1, “Combination comprising a CDK inhibitor and a topoisomerase 1 inhibitor for the treatment of cancer and other proliferative diseases” (Cyclacel Limited, priority 2003, published 2006).

How the values were obtained:
mut-p53 HT29 cells [1] = assay: Western blot of p21WAF1/CIP1 and cdk1 protein expression; assay type: cell-based, human; conditions: 1 μM CPT-11
mut-p53 HT29 cells [2] = assay: Cell cycle progression (BrdU incorporation); conditions: 1 μM CPT-11, up to 36 h, G0/G1 synchronized cells

CCc1c2c(nc3ccc(OC(=O)N4CCC(N5CCCCC5)CC4)cc13)-c1cc3c(c(=O)n1C2)COC(=O)[C@]3(O)CC [CPT-11, irinotecan]
cdk1 protein levels (mut-p53 HT29 cells [1]): increased levels of cdk1
cell cycle blockage (mut-p53 HT29 cells [2]): arrested in late S phase
